Experimental data reported in PubChem BioAssay AID686979 (National Center for Advancing Translational Sciences (NCATS), 2013).
The whole screen tested about 420,000 compounds, of which about 50,000 (12%) were called active. Inconclusive means that the source gave no clear call. Such entries were picked first, then a sample of the others. Calls follow the shape of the dose curve; as a rule, active = well fitted inhibition curve with a large enough effect; inconclusive = small, poorly fitted or top-dose-only effect; inactive = flat fitted curve, though single readings scatter. Potencies of inconclusive entries are left out as doubtful fits.
% is scaled to controls: 0 for no effect and ±100 for the full control effect; potency is read from the fitted curve at half-maximal effect; tags tell the direction and shape of the fitted curve.

Assay: qHTS for Inhibitors of human tyrosyl-DNA phosphodiesterase 1 (TDP1): qHTS in cells in presence of CPT; also: nearly all actives have a fitted effect of over 55% in size
Conditions: chicken DT40 Tdp1-/-;hTDP1 cells + 20 nM CPT, ATP luminescence, 48 h; activity change, negative = growth inhibition: at 46.2 µM (top of the series)
In short: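 Cell growth measured by CellTiter-Glo luminescence after a minimum 48 h, 37 C compound exposure with 20 nM CPT in Tdp1-knockout DT40 cells stably expressing hTDP1, seeded 400/well; qHTS titration format.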
For O=c1cc(CN2CCN(Cc3ccc(F)cc3)C(CCO)C2)[nH]c2ccccc12 (stereo not given), the “activity change, negative = growth inhibition” value was inactive: 34.3%.
In the case of CCc1ccc(NC(=O)c2sc(-n3nc(C)c(Cc4ccc5c(c4)OCO5)c3C)nc2C)cc1, the “activity change, negative = growth inhibition” value is reported as inactive: -2.65%.
With COc1ccc(OC)c(C(=O)c2coc3ccc(OC)cc23)c1 the Potency was inconclusive [inhibitor, single point].
For Cn1cc(CN2CCCC(C(=O)Nc3cccc(-n4cccn4)c3)C2)cn1 (stereo not given), the “activity change, negative = growth inhibition” value was inactive: 0.524%.
In the case of CCCCNC(=O)C(C#N)c1nc2ccccc2nc1N1CCN(c2ccccc2F)CC1 (stereo not given), the “activity change, negative = growth inhibition” value is reported as inactive: -8.54%.
With COC(=O)c1cc(OCC(=O)Nc2ccc3c(c2)CCC3)cc(C(=O)OC)c1 the “activity change, negative = growth inhibition” value was inactive: -5.27%.
With Cc1ccc(C(c2nnnn2CC2CCCO2)N2CCN(c3cccc(C)c3C)CC2)cc1 (stereo not given) the Potency was inconclusive [inhibitor, single point].
With NS(=O)(=O)c1cccc(NC(=O)COC(=O)C2(c3cccc(F)c3)CCCC2)c1 the Potency was inconclusive [inhibitor, single point].
In the case of COCCn1c(=NC(=O)CCS(=O)(=O)c2ccccc2)sc2cc(F)ccc21, the Potency is reported as active: 18.4 µM.
In the case of Cc1ccc2c(c1)nnn2C1CCN(S(=O)(=O)c2ccc3ccccc3c2)CC1, the Potency is reported as inconclusive [inhibitor, single point].
With Cc1cc(Cl)ccc1OC(C)C(=O)Nc1cccc(S(=O)(=O)N2CCOCC2)c1 (stereo not given) the Potency was inconclusive [inhibitor, single point].
In the case of Cc1ccc(S(=O)(=O)N2CCN(C(=O)N3CCOCC3)C2C)cc1 (stereo not given), the “activity change, negative = growth inhibition” value is reported as inactive: 1.17%.
In the case of Cc1[nH]c2ccccc2c1SCc1nnc(SCc2ccccc2)n1C, the “activity change, negative = growth inhibition” value is reported as inactive: -14.7%.
In the case of CC(C)CNC(=O)C(=O)Nc1ccc2c(c1)N(S(=O)(=O)c1cccs1)CCC2, the Potency is reported as inconclusive [inhibitor, single point].
For COc1ccccc1NC(=O)c1ccc(S(=O)(=O)N(C)C)cc1, the “activity change, negative = growth inhibition” value was inactive: 4.77%.
With CC1CCN(C(=O)c2ccc(CSc3ccc(Cl)cc3)cc2)CC1 the Potency was inconclusive [inhibitor, single point].
With CCCSc1ccc([C@@H]2[C@@H]3C(=O)N(CC)C(=O)[C@@H]3[C@]3(C(=O)OC)CCCCN23)cc1OC the Potency was active: 16.4 µM.
With CCOP(=O)(C1=C(O)C(=O)C(C(C)(C)C)=CC1=O)c1ccccc1 (stereo not given) the “activity change, negative = growth inhibition” value was inactive: -2.01%.
In the case of CCOc1ccccc1NC(=O)Cn1c(=O)n(-c2ccc(C)c(C)c2)c(=O)c2oc3ccccc3c21, the “activity change, negative = growth inhibition” value is reported as inactive: -15.8%.
With CC(c1ccco1)N(C(=O)c1ccc(Cl)s1)c1ccccn1 (stereo not given) the Potency was inconclusive [inhibitor, single point].
In the case of Cc1ccccc1-c1cc2nc(Oc3ccc4c(c3)OCO4)n(C)c(=O)c2s1, the Potency is reported as active: 11.6 µM.
With Cc1cccc(-n2ncc3c(N4CCC5(CC4)OCCO5)ncnc32)c1 the Potency was inconclusive [inhibitor, single point].
With O=C(COC(=O)Cc1ccc(Br)cc1)NCc1ccc(F)cc1 the “activity change, negative = growth inhibition” value was inactive: -1.4%.
For COc1ccc2oc(=N)c(C(=O)Nc3ccccc3Cl)cc2c1, the “activity change, negative = growth inhibition” value was inactive: -25.9%.
In the case of CC(C)(C)NC(=O)C(=O)NCCC1=CCCCC1, the Potency is reported as inconclusive [inhibitor, single point].
In the case of CC(C)(C)OC(=O)N1CCC2(CC1)Oc1ccc(Cl)cc1C(=O)C21CC(c2ccc(Cl)cc2)=NO1 (stereo not given), the Potency is reported as inconclusive [inhibitor, single point].
With Cn1nnnc1SCC(=O)Nc1ccc(Oc2ccc(Cl)cc2)cc1 the Potency was inconclusive [inhibitor, single point].
For CC(C)Cn1cnc2c(N)nc3ccccc3c21, the activity change, negative = growth inhibition was inconclusive: -30.4% [inhibitor].
For O=C(NCCc1nnc2n1CCN(CC1CC=CCC1)CC2)c1ccc(F)cc1 (stereo not given), the “activity change, negative = growth inhibition” value was inactive: -0.466%.
In the case of CCN1CCN(CCNC(=O)c2cc(Cl)c(NC(=O)C3=C(C)OCCS3)cc2OC)CC1, the activity change, negative = growth inhibition is reported as inconclusive: -30% [inhibitor].
In the case of COc1cc(-c2cc(NC(C)=O)c3ncc(-c4ccc(F)cc4)n3c2)cc(OC)c1OC, the Potency is reported as inconclusive [inhibitor, single point].
With O=C(CN1CCC(n2nnc3cc(F)ccc32)CC1)NC1CCCCC1 the “activity change, negative = growth inhibition” value was inactive: 9.71%.
In the case of C[C@H](c1ccccc1)N1C[C@@H](COCc2ccccc2)Oc2cc(N3CC[C@@H](N(C)C)C3)ccc2S1(=O)=O, the Potency is reported as active: 18.4 µM.
With Cc1ccc(/C=C/C(=O)NC(=S)Nc2ccccc2C(=O)NC2CCCCC2)cc1 the Potency was active: 13 µM.
In the case of CCN(c1cccc(C)c1)S(=O)(=O)c1cccc2nsnc12, the Potency is reported as inconclusive [inhibitor, partial curve].
For CCCNC(=O)c1ccc(Cn2cc(-c3ccc(OC)cc3)nc2C(C)N)cc1 (stereo not given), the Potency was inconclusive [inhibitor, single point].
In the case of COc1ccc(Br)cc1/C=C/C(=O)Nc1ccc2ccccc2c1, the Potency is reported as inconclusive [inhibitor, single point].
In the case of CCNc1ncc2nc(C)c(=O)n(CCc3ccccc3)c2n1, the Potency is reported as active: 7.31 µM.
For Cc1ccc2nc(-c3cccc(NC(=O)CSc4ccc(Cl)cc4)c3)oc2c1, the Potency was active: 25.9 µM.
With Clc1ccccc1/C=C/c1nc(-c2cccnc2)no1 the “activity change, negative = growth inhibition” value was inactive: -3.12%.
In the case of CCN1CCC(N(Cc2ccc3c(c2)OCO3)C(=O)Nc2cccc(C)c2C)CC1, the Potency is reported as inconclusive [inhibitor, single point].
For CCOC(=O)C1Nc2ccc(OC(F)(F)F)cc2C2C=CCC12 (stereo not given), the Potency was inconclusive [inhibitor, single point].
In the case of CC(=O)N(c1ccc(Cl)cc1)c1c[nH]c2ccccc12, the Potency is reported as inconclusive [inhibitor, single point].
For CCCCc1nc2cc(C(=O)N(C)C(C)c3ccccn3)ccc2o1 (stereo not given), the Potency was inconclusive [inhibitor, single point].
In the case of Cc1ccc(-c2nnn(CC(=O)Nc3cccc4cccnc34)n2)o1, the Potency is reported as inconclusive [inhibitor, single point].
For O=C(Nc1nc(-c2ccccc2)cs1)c1ccc2c(c1)S(=O)(=O)c1ccccc1C2=O, the Potency was inconclusive [inhibitor, single point].
With CN(C)S(=O)(=O)n1cc(/C=C(\NC(=O)c2ccccc2Cl)C(=O)NCCN2CCOCC2)c2ccccc21 the Potency was inconclusive [inhibitor, partial curve].
In the case of O=[N+]([O-])c1cc(S(=O)(=O)Nc2ccccc2)ccc1NCc1ccccc1, the “activity change, negative = growth inhibition” value is reported as inactive: -22.9%.
In the case of CCOC(=O)c1c(-c2ccc(C)o2)csc1NC(=O)CSc1nnnn1-c1ccccc1, the Potency is reported as inconclusive [inhibitor, single point].
With NCCCC[C@H]1CNC(=O)C(=O)N1CCC12CC3CC(CC(C3)C1)C2 the “activity change, negative = growth inhibition” value was inactive: 10.1%.
In the case of COC(=O)c1ccc(Sc2ccc(C)cc2)c(N)c1, the Potency is reported as inconclusive [inhibitor, single point].
For CC(=O)N1CCCc2cc(S(=O)(=O)NCc3ccccc3Cl)ccc21, the Potency was inconclusive [inhibitor, single point].
In the case of CC(=O)N(C)c1ccc(NC(=S)NC(=O)/C=C/c2ccco2)cc1, the “activity change, negative = growth inhibition” value is reported as inactive: -17.3%.
With Cc1cc(C(=O)CN2C(=O)NC(C)(CC(C)C)C2=O)c(C)n1-c1ccc2c(c1)OCO2 (stereo not given) the Potency was inconclusive [inhibitor, single point].
For COc1cccc(C(=O)C2CCCN(C(=O)c3cccc(C#CC(C)(C)O)c3)C2)c1 (stereo not given), the Potency was inconclusive [inhibitor, single point].
With CCc1ccc(NC(=O)C2CCC(CNC(=O)[C@@H]3Cc4ccccc4CN3)CC2)cc1 (stereo not given in full) the Potency was inconclusive [inhibitor, single point].
With COc1ccccc1NC(=O)CCC(=O)c1ccc(-c2ccccc2)cc1 the Potency was inconclusive [inhibitor, single point].
With COc1ccc(Oc2coc3cc(OC(=O)/C=C/c4ccccc4)ccc3c2=O)cc1 the “activity change, negative = growth inhibition” value was inactive: 0.119%.
For Cc1ccc(-n2c(=O)c3c(C)c(C)sc3n(Cc3cc(=O)n4ccccc4n3)c2=O)cc1C, the Potency was inconclusive [inhibitor, partial curve].
With CCN(Cc1ccccc1)C(=O)C1CCC(CNS(=O)(=O)c2ccc3c(c2)CCCC(=O)N3)CC1 (stereo not given) the Potency was inconclusive [inhibitor, single point].
For COC(=O)C1=CO[C@@H](O[C@@H]2O[C@H](CO)[C@@H](O)[C@H](O)[C@H]2O)C2C(CO)=CCC12 (stereo not given in full), the “activity change, negative = growth inhibition” value was inactive: -3.05%.
For COc1ccc(COC(=O)c2ccc(S(=O)(=O)N3CCC(C)CC3)cc2)cc1, the “activity change, negative = growth inhibition” value was inactive: -2.38%.
For O=c1[nH]c(SCc2ccccc2)nc2[nH]ncc12, the “activity change, negative = growth inhibition” value was inactive: 15.5%.
In the case of CC1CCN(c2ccc3c(c2)S(=O)(=O)c2cccc(C(=O)NCc4cccc(F)c4)c2C3=O)CC1, the Potency is reported as inconclusive [inhibitor, single point].
With COc1ccccc1CN(C)C(=O)c1ccccc1SCC(=O)N1CCCC1 the Potency was inconclusive [inhibitor, single point].
For O=S(=O)(NNc1ccc(F)cc1F)c1cccc(Cl)c1, the “activity change, negative = growth inhibition” value was inactive: 2.44%.
For COCCCNC(=O)/C(C#N)=C1\N=C(NC(=O)c2cccs2)c2ccccc21, the Potency was inconclusive [inhibitor, single point].
In the case of O=C(CNc1ccc2ccccc2c1)N/N=C/C=C/c1cccc([N+](=O)[O-])c1, the Potency is reported as inconclusive [inhibitor, single point].
For Cc1ccc(C)c(NC(=O)c2cc(S(=O)(=O)N3CCN(c4cccc(Cl)c4)CC3)ccc2F)c1, the Potency was inconclusive [inhibitor, full curve].
For O=C(Nc1ccccc1C(=O)O)c1ccc(Cl)c(S(=O)(=O)N2CCOCC2)c1, the Potency was inconclusive [inhibitor, single point].
